Measurements taken from the supplement of paper PMC4967469.
Lines with a small IC50 respond at low doses; a limit (>, <) means that the fit lies beyond the doses tested. The AUC spans the tested range (256-fold, ending at the top dose) of the same fit; it is 1 without any effect and falls as sensitivity rises. A top dose marked as inferred was calculated from the reported fits. For some assays here: An entry number marks a drug with two screens in the source, which often give different values.

How the values were obtained:
AKT inhibitor VIII = compound: O=c1[nH]c2ccccc2n1C1CCN(Cc2ccc(-c3[nH]c4cc5ncnc5cc4nc3-c3ccccc3)cc2)CC1 [AKT inhibitor VIII]; assay: Viability of human cancer cell lines after 72 h of drug (GDSC screen); conditions: top dose inferred
Method: (§1)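 Human cancer cell lines in 384-well plates, medium with 10% serum, drug for 72 h over a 256-fold dose range (nine 2-fold or five 4-fold steps up to the top dose). Adherent lines were fixed and stained with the nucleic acid dye Syto60, suspension lines read with resazurin; signal relative to control wells, capped at 0 and 100%. One two-parameter sigmoid per drug and line, fitted in a mixed model over all curves with the slope shared within a line.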

AICAR = compound: NC(=O)c1ncn([C@@H]2O[C@H](CO)[C@@H](O)[C@H]2O)c1N [AICAR]; assay: as above; conditions: top dose 2000 µM; top dose inferred
Method: as §1

[1] = top dose 2.56 µM, screen: GDSC drug entry 171
[2] = top dose 10.24 µM, screen: GDSC drug entry 228

Cell Line	AUC (AKT inhibitor VIII; [1])	IC50 (AKT inhibitor VIII; [1])	AUC (AKT inhibitor VIII; [2])	IC50 (AKT inhibitor VIII; [2])	AUC (AICAR)	IC50 (AICAR)
NCI-H2087 (lung adenocarcinoma, semi-adherent)	0.968	> 2.56 µM	0.829	7.04 µM	0.915	> 2000 µM
NCI-H2110 (non-small cell lung carcinoma, adherent)	0.795	1.22 µM	0.901	> 10.2 µM	0.985	> 2000 µM
NCI-H2122 (lung adenocarcinoma, adherent)	0.943	> 2.56 µM	0.927	> 10.2 µM	0.731	541 µM
NCI-H2135 (non-small cell lung carcinoma, adherent)	0.987	> 2.56 µM	0.943	> 10.2 µM	0.99	> 2000 µM
NCI-H2141 (small cell lung carcinoma, suspension)	0.989	> 2.56 µM	0.853	7.68 µM	0.946	> 2000 µM
NCI-H2172 (non-small cell lung carcinoma, adherent)	0.925	> 2.56 µM	0.872	> 10.2 µM	0.922	> 2000 µM
NCI-H2227 (small cell lung carcinoma, semi-adherent)	0.986	> 2.56 µM	0.881	> 10.2 µM	0.908	> 2000 µM
NCI-H2342 (lung adenocarcinoma, adherent)	0.729	0.773 µM	0.971	> 10.2 µM	0.899	> 2000 µM
NCI-H2347 (lung adenocarcinoma, adherent)	0.927	> 2.56 µM	0.821	7.62 µM	0.911	> 2000 µM
NCI-H2405 (lung adenocarcinoma, adherent)	0.94	> 2.56 µM	0.937	> 10.2 µM	0.967	> 2000 µM
NCI-H2444 (non-small cell lung carcinoma, adherent)	0.976	> 2.56 µM	0.961	> 10.2 µM	0.924	> 2000 µM
NCI-H2452 (mesothelioma, adherent)	0.944	> 2.56 µM	0.984	> 10.2 µM	0.901	> 2000 µM
NCI-H3122 (lung adenocarcinoma, adherent)	0.702	0.603 µM	0.9	> 10.2 µM	0.922	> 2000 µM
NCI-SNU-1 (stomach, suspension)	0.966	> 2.56 µM	0.776	4.24 µM	0.893	> 2000 µM
NCI-SNU-16 (stomach, suspension)	0.991	> 2.56 µM	0.962	> 10.2 µM	0.871	1520 µM
NEC8 (testis, adherent)	0.991	> 2.56 µM	0.967	> 10.2 µM	0.984	> 2000 µM
NH-12 (neuroblastoma, adherent)	–	–	0.818	6.72 µM	0.935	> 2000 µM
NKM-1 (acute myeloid leukaemia, suspension)	0.884	> 2.56 µM	0.464	0.508 µM	0.55	172 µM
NMC-G1 (glioma, adherent)	0.954	> 2.56 µM	0.86	> 10.2 µM	0.924	> 2000 µM
NOS-1 (osteosarcoma, adherent)	0.775	1.25 µM	0.537	0.829 µM	0.7	525 µM
NTERA-2 cl.D1 (testis, adherent)	0.972	> 2.56 µM	0.958	> 10.2 µM	0.958	> 2000 µM
NU-DUL-1 (B-cell lymphoma, suspension)	0.955	> 2.56 µM	0.564	0.921 µM	0.608	232 µM
NUGC-4 (stomach, adherent)	0.976	> 2.56 µM	0.97	> 10.2 µM	0.899	> 2000 µM
NY (osteosarcoma, adherent)	0.947	> 2.56 µM	0.954	> 10.2 µM	0.826	1190 µM
OACM5-1 (oesophagus, semi-adherent)	–	–	0.591	1.17 µM	0.894	> 2000 µM
OACp4C (oesophagus, adherent)	–	–	0.614	1.41 µM	0.933	> 2000 µM

Cell Line	AUC (AKT inhibitor VIII; [1])	IC50 (AKT inhibitor VIII; [1])	AUC (AKT inhibitor VIII; [2])	IC50 (AKT inhibitor VIII; [2])	AUC (AICAR)	IC50 (AICAR)
OAW-42 (ovary, adherent)	0.918	> 2.56 µM	0.811	5.99 µM	0.967	> 2000 µM
OC-314 (ovary, adherent)	–	–	0.944	> 10.2 µM	0.963	> 2000 µM
OCI-AML2 (acute myeloid leukaemia, suspension)	0.982	> 2.56 µM	0.899	7.1 µM	0.674	332 µM
OCI-AML5 (acute myeloid leukaemia, suspension)	0.924	> 2.56 µM	0.528	0.758 µM	0.532	152 µM
OCI-LY-19 (B-cell lymphoma, suspension)	0.946	> 2.56 µM	0.714	2.44 µM	0.727	519 µM
OCI-M1 (acute myeloid leukaemia, suspension)	0.995	> 2.56 µM	0.543	0.815 µM	0.958	> 2000 µM
OCUB-M (breast, adherent)	0.844	1.48 µM	0.428	0.418 µM	0.884	1650 µM
OCUM-1 (stomach, adherent)	0.976	> 2.56 µM	0.987	> 10.2 µM	0.953	> 2000 µM
OE19 (oesophagus, adherent)	0.921	> 2.56 µM	0.971	> 10.2 µM	0.897	> 2000 µM
OE21 (oesophagus, adherent)	0.893	> 2.56 µM	0.954	> 10.2 µM	0.686	510 µM
OE33 (oesophagus, adherent)	0.799	1.51 µM	0.916	> 10.2 µM	0.822	1480 µM
OMC-1 (cervix, adherent)	0.903	> 2.56 µM	0.884	> 10.2 µM	0.921	> 2000 µM
ONS-76 (medulloblastoma, adherent)	0.968	> 2.56 µM	0.931	> 10.2 µM	0.97	> 2000 µM
OPM-2 (myeloma, suspension)	0.983	> 2.56 µM	0.666	1.68 µM	0.947	> 2000 µM
OS-RC-2 (kidney, adherent)	0.887	> 2.56 µM	0.862	> 10.2 µM	0.849	> 2000 µM
OSC-20 (head and neck, adherent)	0.925	> 2.56 µM	0.939	> 10.2 µM	0.799	1180 µM
OV-7 (ovary, adherent)	–	–	0.899	> 10.2 µM	0.934	> 2000 µM
OV-17R (ovary, adherent)	–	–	0.888	> 10.2 µM	0.981	> 2000 µM
OV-56 (ovary, adherent)	–	–	0.888	> 10.2 µM	0.918	> 2000 µM
OV-90 (ovary, adherent)	0.936	> 2.56 µM	0.643	1.79 µM	0.965	> 2000 µM
OVCA420 (ovary, adherent)	–	–	0.973	> 10.2 µM	0.98	> 2000 µM
OVCA433 (ovary, adherent)	–	–	0.918	> 10.2 µM	0.907	> 2000 µM
OVCAR-4 (ovary, adherent)	0.93	> 2.56 µM	0.852	> 10.2 µM	0.763	1080 µM
OVCAR-5 (ovary, adherent)	0.966	> 2.56 µM	0.96	> 10.2 µM	0.929	> 2000 µM
OVCAR-8 (ovary, adherent)	0.985	> 2.56 µM	0.902	> 10.2 µM	0.861	1420 µM
OVISE (ovary, adherent)	0.915	> 2.56 µM	0.829	9.4 µM	0.778	1090 µM

Cell Line	AUC (AKT inhibitor VIII; [1])	IC50 (AKT inhibitor VIII; [1])	AUC (AKT inhibitor VIII; [2])	IC50 (AKT inhibitor VIII; [2])	AUC (AICAR)	IC50 (AICAR)
OVK-18 (ovary, adherent)	–	–	0.797	5.44 µM	0.869	> 2000 µM
OVKATE (ovary, adherent)	0.959	> 2.56 µM	0.84	> 10.2 µM	0.861	> 2000 µM
OVMIU (ovary, adherent)	0.924	> 2.56 µM	0.58	1.12 µM	0.949	> 2000 µM
OVTOKO (ovary, adherent)	0.918	> 2.56 µM	0.919	> 10.2 µM	0.813	1470 µM
P12-ICHIKAWA (T-cell lymphoblastic leukaemia, suspension)	0.978	> 2.56 µM	0.429	0.428 µM	0.941	> 2000 µM
P30-OHK (lymphoblastic leukaemia, suspension)	0.92	> 2.56 µM	0.486	0.589 µM	0.526	145 µM
P31-FUJ (acute myeloid leukaemia, suspension)	0.996	> 2.56 µM	0.979	> 10.2 µM	0.809	754 µM
P32-ISH (Burkitt lymphoma, suspension)	0.975	> 2.56 µM	0.909	7.9 µM	0.886	1280 µM
PA-1 (ovary, adherent)	0.932	> 2.56 µM	0.741	2.58 µM	0.938	> 2000 µM
PA-TU-8902 (pancreas, adherent)	0.944	> 2.56 µM	0.963	> 10.2 µM	0.81	1280 µM
PA-TU-8988T (pancreas, adherent)	0.942	> 2.56 µM	0.983	> 10.2 µM	0.82	1150 µM
PANC-02-03 (pancreas, adherent)	0.914	> 2.56 µM	0.94	> 10.2 µM	0.821	1480 µM
PANC-03-27 (pancreas, adherent)	0.921	> 2.56 µM	0.926	> 10.2 µM	0.921	> 2000 µM
PANC-04-03 (pancreas, adherent)	0.951	> 2.56 µM	0.923	> 10.2 µM	0.818	> 2000 µM
PANC-08-13 (pancreas, adherent)	0.961	> 2.56 µM	0.895	> 10.2 µM	0.798	1270 µM
PC-3 [JPC-3] (lung adenocarcinoma, adherent)	0.948	> 2.56 µM	0.887	> 10.2 µM	0.873	> 2000 µM
PC-14 (lung adenocarcinoma, adherent)	0.986	> 2.56 µM	0.784	3.85 µM	0.691	400 µM
PCI-4B (head and neck, adherent)	0.844	1.69 µM	0.904	> 10.2 µM	0.748	615 µM
PCI-6A (head and neck, adherent)	0.916	> 2.56 µM	0.853	7.77 µM	0.813	1050 µM
PCI-15A (head and neck, adherent)	0.987	> 2.56 µM	0.931	> 10.2 µM	0.981	> 2000 µM
PCI-30 (head and neck, adherent)	0.971	> 2.56 µM	0.942	> 10.2 µM	0.882	> 2000 µM
PE/CA-PJ15 (head and neck, adherent)	0.986	> 2.56 µM	0.977	> 10.2 µM	0.792	985 µM
PEO1 (ovary, adherent)	–	–	0.936	> 10.2 µM	0.903	> 2000 µM
PF-382 (T-cell lymphoblastic leukaemia, suspension)	0.958	> 2.56 µM	0.429	0.42 µM	0.909	> 2000 µM
PFSK-1 (medulloblastoma, adherent)	0.984	> 2.56 µM	0.909	> 10.2 µM	0.959	> 2000 µM
